Whole data set: some 33,000 sequences, median “E-score (-0.5 to 0.5)” near -0.011, cut for the highest 2% near 0.28. The list shows a part of the results.

This experiment has as its target T1, Gcr1 (UniProt P07261).
T1 sequence: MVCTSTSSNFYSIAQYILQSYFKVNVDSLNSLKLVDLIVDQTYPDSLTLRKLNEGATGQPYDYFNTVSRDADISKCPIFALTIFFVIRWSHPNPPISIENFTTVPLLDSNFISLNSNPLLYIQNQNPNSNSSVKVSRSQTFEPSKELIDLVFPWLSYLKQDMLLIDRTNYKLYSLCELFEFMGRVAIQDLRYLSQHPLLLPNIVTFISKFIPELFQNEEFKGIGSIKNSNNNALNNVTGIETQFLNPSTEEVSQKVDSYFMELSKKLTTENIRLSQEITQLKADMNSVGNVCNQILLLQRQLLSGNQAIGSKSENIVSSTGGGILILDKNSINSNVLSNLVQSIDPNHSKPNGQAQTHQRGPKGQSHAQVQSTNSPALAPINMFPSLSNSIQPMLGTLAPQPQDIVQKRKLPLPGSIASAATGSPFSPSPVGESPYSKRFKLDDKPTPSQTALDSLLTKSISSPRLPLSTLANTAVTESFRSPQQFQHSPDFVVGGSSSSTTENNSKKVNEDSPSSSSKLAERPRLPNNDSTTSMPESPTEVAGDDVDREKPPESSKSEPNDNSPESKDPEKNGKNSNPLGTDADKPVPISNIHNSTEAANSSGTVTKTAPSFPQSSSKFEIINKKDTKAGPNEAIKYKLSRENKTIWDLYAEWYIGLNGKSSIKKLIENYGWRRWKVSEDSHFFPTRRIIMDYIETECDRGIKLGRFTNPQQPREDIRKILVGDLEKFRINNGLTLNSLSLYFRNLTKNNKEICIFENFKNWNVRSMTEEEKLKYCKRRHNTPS
Briefly: PBM E-score (8-mer binding enrichment) (E-score (-0.5 to 0.5)); higher = stronger / more preferred TF binding; most listed sequences are background and not binding sites. The following applies: protein concentration: 100 nM; construct: GST-full length. In short, it runs like this: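 Universal all-10-mer Agilent arrays, fresh or stripped once, were converted to double-stranded form by primer extension. GST-tagged yeast transcription factors from PURExpress in vitro transcription/translation, full-length or DNA-binding domain only, were applied at about 100-200 nM and detected with fluorescent anti-GST. After masliner normalisation, the Universal PBM Analysis Suite scored each ungapped eight-base word together with its reverse complement by E-score.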
Take ACTGACCC: the “PBM E-score” value was -0.321. Under CGGGTCTA stands 0.0247; under AGTAGTGG, 0.253; under ACACGCAA, 0.127. The figure for GCAACCCA is 0.197.

For the sequence GCCCCGGA, the “PBM E-score” value stood at 0.0598. Under GACACTTA stands -0.0835.

Take GCTGCAGA: the “PBM E-score” value was -0.0246.

Consider ATGTCAAA, for which the “PBM E-score” value is -0.036. As to AAACACTT, the “PBM E-score” value was -0.0959.

Turning to AACGCGAG, the “PBM E-score” value was -0.101. For the sequence TAGGATCA, the “PBM E-score” value was -0.0968. The figure for AACTGCAG is 0.0233; for GTTATTAA it is 0.0393. Take AGTGATCA: the “PBM E-score” value is -0.0788. For AGACGTAT, the “PBM E-score” value worked out at 0.0564. Under GGCGCACC stands -0.233; under CCAAACCA, 0.106; under CAGACACC, 0.00535. Under CAAAGTGA stands -0.0881; under CAACCCCA, 0.0532; under AGTTTGAT, -0.0282. The figure for GAATCGGA is 0.011; for CTAGTCCA it is -0.0623; for CCCGACCG it is -0.317. As for CGGTCTCC, the “PBM E-score” value is -0.134. Consider ACGATACG, for which the “PBM E-score” value came out at 0.116. The figure for CGAAGGGA is -0.275; for GGCAACGA it is -0.124. Consider CCCGGACC, for which the “PBM E-score” value was -0.0455. Under CCGCGGAA stands 0.1; under CACCGTGC, -0.16; under ATGTTCCC, -0.0387.

Take AACTGCAA: the “PBM E-score” value was found to be 0.106. The figure for AATACCGT is 0.00513.

Turning to CTCTGACA, the “PBM E-score” value was 0.0673. Under TCAGTACA stands -0.0408; under GCCGTGCC, -0.0428. The figure for CATAAAGA is 0.00123; for CTACGAAA it is 0.014; for AGCACCAC it is 0.235. Under CGACAATC stands -0.0716.

Turning to AGGAAAGC, the “PBM E-score” value is -0.0635.

ACTAAAGT: the “PBM E-score” value came out at 0.111. Under CGGATGCA stands 0.0929; under GAATTTGC, 0.0352. In the case of GGTGAGAC, the “PBM E-score” value was -0.166. Under AGTCTTCC stands -0.193; under CCCCGTCA, -0.0451; under ATTCCAGC, 0.299. Under ACGTATAA stands 0.132; under ACCCCTAG, -0.109.

Turning to ATAGGCGC, the “PBM E-score” value is 0.206. The figure for CTTGAAGC is -0.107; for GAACTCAC it is 0.0724; for CTCAATGA it is -0.0746. CCCCGTAG: the “PBM E-score” value was -0.142. The figure for AGTGGCAG is 0.287; for ATTATATG it is 0.11; for GGTTCTCA it is 0.122. The figure for CACTTCGG is 0.046. The figure for CATCCAAA is 0.298; for CGTGCGAC it is -0.204; for TAGGACCA it is -0.081. As for ATCTCACA, the “PBM E-score” value is -0.0169. Under CCAATATC stands -0.0269; under ACCTACCC, -0.188; under GTCCGGGA, 0.18. Under ATAATTCC stands 0.0569; under TAACATTA, 0.0557.

In the case of AGCAAAGC, the “PBM E-score” value was -0.192. Take CCTCACGA: the “PBM E-score” value is -0.183. The figure for TGCGAAAA is 0.117; for ATTATTGA it is -0.0804. CCCCGTAA: the “PBM E-score” value amounted to 0.174. Regarding GAGCCTAC, the “PBM E-score” value was -0.0361.

With ATGAAACG, the “PBM E-score” value was -0.0222. Under CCAGCCAC stands 0.0313; under AGAATGCT, -0.303. For the sequence AAATGTTG, the “PBM E-score” value is 0.00832.

Turning to TACATGGA, the “PBM E-score” value is -0.0102. The figure for AAGAGAGG is 0.0766; for GAAAAGTC it is -0.0948. Consider AGACGTTG, for which the “PBM E-score” value was -0.00101. For the sequence ACCGGAAC, the “PBM E-score” value turned out to be 0.203. Under ACCCGTTG stands -0.0283.

The record behind these values is the supplement of paper PMC3334620.
